{"source": "the antibiotic and cytotoxicity screens of Wong et al. (2023)", "note": "The other results are listed elsewhere or left out.", "data": [{"system": "HepG2", "experiment": "cytotoxicity call (relative viability < 0.9)", "conditions": "10 µM", "values": [{"smiles": "C[C@@H]1CCCCO[C@@H](CN(C)Cc2ccc(C(F)(F)F)cc2)[C@H](C)CN([C@@H](C)CO)C(=O)c2cc(NC(=O)c3ccncc3)ccc2O1", "cytotoxicity call": "inactive"}, {"smiles": "CCC(=O)Nc1ccc2c(c1)C(=O)N(C)C[C@H](OC)[C@@H](C)CN(C(=O)CN1CCOCC1)[C@H](C)CO2", "cytotoxicity call": "inactive"}, {"smiles": "CO[C@H]1CN(C)C(=O)c2ccc(NS(=O)(=O)CC(F)(F)F)cc2OC[C@H](C)N(C(=O)c2ccc3c(c2)OCO3)C[C@@H]1C", "cytotoxicity call": "inactive"}, {"smiles": "C[C@@H]1CN([C@@H](C)CO)C(=O)c2cccc(NC(=O)Nc3ccc(F)cc3)c2O[C@H]1CN(C)CC1CCCCC1", "cytotoxicity call": "inactive"}, {"smiles": "O=c1ccc(=O)n(CNc2nccs2)[nH]1", "cytotoxicity call": "inactive"}, {"smiles": "C[C@@H]1CN([C@H](C)CO)C(=O)c2cccc(NC(=O)Nc3ccc(F)cc3)c2O[C@@H]1CN(C)CC1CCCCC1", "cytotoxicity call": "inactive"}, {"smiles": "C[C@]12C[C@]3(O)O[C@@H](O1)[C@]1(COC(=O)c4ccccc4)[C@H]3C[C@@]12O[C@@H]1O[C@H](CO)[C@@H](O)[C@H](O)[C@H]1O", "cytotoxicity call": "inactive"}, {"smiles": "C[C@@H]1CCCCO[C@@H](CN(C)Cc2ccc(Cl)c(Cl)c2)[C@@H](C)CN([C@H](C)CO)C(=O)c2cc(NS(=O)(=O)c3ccc(F)cc3)ccc2O1", "cytotoxicity call": "active"}, {"smiles": "Cc1ccc(S(=O)(=O)Nc2ccc3c(c2)CC(=O)N([C@@H](C)CO)C[C@@H](C)[C@@H](CN(C)Cc2ccc(-c4ccccc4)cc2)O3)cc1", "cytotoxicity call": "active"}]}, {"system": "S. aureus RN4220", "experiment": "growth inhibition call (relative growth <= 0.2)", "conditions": "50 µM", "values": [{"smiles": "C[C@@H]1CN([C@H](C)CO)C(=O)c2cc(NC(=O)Cc3ccccc3)ccc2O[C@H]1CN(C)Cc1ccc(Cl)c(Cl)c1", "growth inhibition call": "inactive"}, {"smiles": "C[C@H]1CN([C@@H](C)CO)C(=O)c2cc(C#CCN(C)C)cnc2O[C@H]1CN(C)Cc1cccc(C(=O)O)c1", "growth inhibition call": "inactive"}, {"smiles": "C[C@@H]1CN([C@@H](C)CO)C(=O)CCCn2nncc2CO[C@H]1CN(C)C(=O)Nc1cccc(Oc2ccccn2)c1", "growth inhibition call": "inactive"}, {"smiles": "C[C@@H]1CN([C@H](C)CO)S(=O)(=O)c2ccc(C#CCN(C)C)cc2O[C@H]1CN(C)Cc1cccnc1", "growth inhibition call": "inactive"}, {"smiles": "COc1ccc(S(=O)(=O)N(C)C[C@@H]2OCCCC[C@H](C)Oc3ccc(NC(=O)Nc4ccc(F)cc4)cc3C(=O)N([C@H](C)CO)C[C@H]2C)cc1", "growth inhibition call": "inactive"}, {"smiles": "COc1ccc(S(=O)(=O)N(C)C[C@@H]2Oc3c(NC(=O)Nc4c(C)noc4C)cccc3C(=O)N([C@H](C)CO)C[C@H]2C)cc1", "growth inhibition call": "inactive"}, {"smiles": "O=c1cc[nH]c(=O)[nH]1", "growth inhibition call": "inactive"}, {"smiles": "O=C(OC(C(F)(F)F)C(F)(F)F)N1CCN(Cc2ccc(C(F)(F)F)cc2N2CCCC2)CC1", "growth inhibition call": "inactive"}, {"smiles": "C[C@H](CO)N1C[C@H](C)[C@H](CN(C)S(=O)(=O)c2cccs2)Oc2c(NC(=O)Nc3cccc4ccccc34)cccc2C1=O", "growth inhibition call": "inactive"}, {"smiles": "CO[C@H](CN(C)C(=O)c1ccc2c(c1)OCO2)[C@@H](C)CN([C@H](C)CO)S(=O)(=O)c1ccc(C)cc1", "growth inhibition call": "inactive"}, {"smiles": "C[C@H]1CN([C@@H](C)CO)C(=O)Cc2cc(NC(=O)Cn3cnnn3)ccc2O[C@@H]1CN(C)Cc1ccc2c(c1)OCO2", "growth inhibition call": "inactive"}, {"smiles": "CO[C@H]1CN(C)C(=O)c2cc(NS(C)(=O)=O)ccc2OC[C@H](C)N(C(=O)c2ccc3c(c2)OCO3)C[C@H]1C", "growth inhibition call": "inactive"}, {"smiles": "C[C@H](CO)N1C[C@H](C)[C@H](CN(C)S(=O)(=O)c2cn(C)cn2)Oc2ccc(NC(=O)Cc3ccccc3)cc2CC1=O", "growth inhibition call": "inactive"}, {"smiles": "c1ccc(Oc2cccc(Oc3ccccc3)c2)cc1", "growth inhibition call": "inactive"}, {"smiles": "C[C@H](O)C#Cc1ccc2c(c1)O[C@H](CN(C)C(=O)Nc1ccccc1)[C@@H](C)CN([C@@H](C)CO)S2(=O)=O", "growth inhibition call": "inactive"}, {"smiles": "COc1ccccc1S(=O)(=O)N1C[C@H](O)COC[C@H]2O[C@@H](CC(=O)O)CC[C@@H]21", "growth inhibition call": "inactive"}, {"smiles": "O=C(C[C@H]1CC[C@@H]2[C@H](COC[C@@H](O)CN2S(=O)(=O)c2ccc(F)cc2)O1)N[C@@H]1CCN(Cc2ccccc2)C1", "growth inhibition call": "inactive"}, {"smiles": "CO[C@@H]1CN(C)C(=O)c2cc(NS(C)(=O)=O)ccc2OC[C@H](C)N(C(=O)c2ccc3c(c2)OCO3)C[C@H]1C", "growth inhibition call": "inactive"}, {"smiles": "C[C@@H]1CN([C@H](C)CO)C(=O)c2cccc(NC(=O)c3cnccn3)c2O[C@H]1CN(C)S(=O)(=O)c1ccc(Cl)cc1", "growth inhibition call": "inactive"}, {"smiles": "CCNC1CC(N)C(OC2OC(CN)=CCC2N)C(O)C1OC1OCC(C)(O)C(NC)C1O.O=S(=O)(O)O.O=S(=O)(O)O", "note": "(centres undefined)", "growth inhibition call": "inactive"}, {"smiles": "CS(=O)(=O)CCNCc1ccc(-c2ccc3ncnc(Nc4ccc(OCc5cccc(F)c5)c(Cl)c4)c3c2)o1", "growth inhibition call": "inactive"}, {"smiles": "C[C@@H]1CCCCO[C@H](CN(C)C(=O)C2CCCCC2)[C@H](C)CN([C@@H](C)CO)C(=O)c2cc(NS(=O)(=O)c3ccc(F)cc3)ccc2O1", "growth inhibition call": "inactive"}, {"smiles": "O=C(C[C@@H]1CC[C@H]2[C@@H](COC[C@@H](O)CN2C(=O)Nc2cccc(F)c2)O1)NCc1ccccc1Cl", "growth inhibition call": "inactive"}, {"smiles": "Cn1ccc(=O)[nH]c1=O", "growth inhibition call": "inactive"}, {"smiles": "COc1cccc(-c2ccc3c(c2)O[C@@H](CN(C)C(=O)C2CCC2)[C@@H](C)CN([C@@H](C)CO)S3(=O)=O)c1", "growth inhibition call": "inactive"}, {"smiles": "CC1=C(/C=C/C(C)=C/C=C/C(C)=C\\C(=O)O)C(C)(C)CCC1", "growth inhibition call": "inactive"}, {"smiles": "C[C@@H]1CCCCO[C@@H](CN(C)Cc2ccccc2)[C@@H](C)CN([C@@H](C)CO)C(=O)c2cc(NS(=O)(=O)c3ccc(Cl)cc3)ccc2O1", "growth inhibition call": "inactive"}, {"smiles": "COC1C(=O)C2(C)C(OC)CC3OCC3(OC(C)=O)C2C(OC(=O)c2ccccc2)C2(O)CC(OC(=O)C(O)C(NC(=O)OC(C)(C)C)c3ccccc3)C(C)=C1C2(C)C", "note": "(centres undefined)", "growth inhibition call": "inactive"}, {"smiles": "C[C@@H]1CN([C@@H](C)CO)C(=O)c2cc(C#CC3CCCC3)cnc2O[C@H]1CN(C)C(=O)Cc1ccccn1", "growth inhibition call": "inactive"}, {"smiles": "C[C@H]1CCCCO[C@H](CN(C)C(=O)NC2CCCCC2)[C@@H](C)CN([C@@H](C)CO)C(=O)c2cc(NS(=O)(=O)c3ccc(F)cc3)ccc2O1", "growth inhibition call": "inactive"}, {"smiles": "Nc1ccc(C(F)(F)F)cc1Cl", "growth inhibition call": "inactive"}, {"smiles": "C[C@@H]1CCCCO[C@@H](CN(C)Cc2ccc(C(F)(F)F)cc2)[C@H](C)CN([C@@H](C)CO)C(=O)c2cc(NC(=O)c3ccncc3)ccc2O1", "growth inhibition call": "inactive"}, {"smiles": "CCC(=O)Nc1ccc2c(c1)C(=O)N(C)C[C@H](OC)[C@@H](C)CN(C(=O)CN1CCOCC1)[C@H](C)CO2", "growth inhibition call": "inactive"}, {"smiles": "CO[C@H]1CN(C)C(=O)c2ccc(NS(=O)(=O)CC(F)(F)F)cc2OC[C@H](C)N(C(=O)c2ccc3c(c2)OCO3)C[C@@H]1C", "growth inhibition call": "inactive"}, {"smiles": "C[C@@H]1CN([C@@H](C)CO)C(=O)c2cccc(NC(=O)Nc3ccc(F)cc3)c2O[C@H]1CN(C)CC1CCCCC1", "growth inhibition call": "inactive"}, {"smiles": "O=c1ccc(=O)n(CNc2nccs2)[nH]1", "growth inhibition call": "inactive"}, {"smiles": "C[C@@H]1CN([C@H](C)CO)C(=O)c2cccc(NC(=O)Nc3ccc(F)cc3)c2O[C@@H]1CN(C)CC1CCCCC1", "growth inhibition call": "inactive"}, {"smiles": "C[C@]12C[C@]3(O)O[C@@H](O1)[C@]1(COC(=O)c4ccccc4)[C@H]3C[C@@]12O[C@@H]1O[C@H](CO)[C@@H](O)[C@H](O)[C@H]1O", "growth inhibition call": "inactive"}, {"smiles": "C[C@@H]1CCCCO[C@@H](CN(C)Cc2ccc(Cl)c(Cl)c2)[C@@H](C)CN([C@H](C)CO)C(=O)c2cc(NS(=O)(=O)c3ccc(F)cc3)ccc2O1", "growth inhibition call": "inactive"}, {"smiles": "Cc1ccc(S(=O)(=O)Nc2ccc3c(c2)CC(=O)N([C@@H](C)CO)C[C@@H](C)[C@@H](CN(C)Cc2ccc(-c4ccccc4)cc2)O3)cc1", "growth inhibition call": "inactive"}]}]}
